Measurements from PMC7278352, “Phosphorylation of the overlooked tyrosine 310 regulates the structure, aggregation, and microtubule- and lipid-binding properties of Tau” (The Journal of Biological Chemistry, 2020).

Biological target: the molecule itself
Assay: heparin-induced aggregation (ThT fluorescence, sedimentation by ultracentrifugation with SDS-PAGE, EM, CD); self-association: 10 uM protein with 2.5 uM heparin (heparin:protein 1:4) in 10 mM phosphate pH 7.4, 50 mM NaF, 0.5 mM DTT, 37 C, orbital shaking at 1000 rpm; fibrils pelleted at 200,000 x g for 2 h

B1: Tau 4F/Tyr-394 (all tyrosine residues except Tyr-394 mutated to phenylalanine) (natural protein)
chain: not shown
notes: source: E. coli BL21, purified (MonoS cation exchange, RP-HPLC C4)
  binding result: binds

B2: Tau 4F/pTyr-394 (phosphorylated only at Tyr-394) (natural protein)
chain: not shown
modifications: phosphotyrosine at Tyr-394 (complete phosphorylation)
notes: also called 4F/pY394; source: E. coli BL21, purified; phosphorylated in vitro by recombinant c-Abl, purified by RP-HPLC
  binding result: binds
